Results published in patent US20080188508A1, “Methods and Therapies for Potentiating a Therapeutic Action of an Opioid Receptor Agonist and Inhibiting and/or Reversing Tolerance to Opioid Receptor Agonists” (priority 2007, published 2008).
Where two headings read alike, the source gives them in different places.

Experiments:
Sprague Dawley rats [1] = system: Sprague Dawley rats
[2] = system: CGRP-immunoreactivity in the spinal dorsal horn; settings: for increase in the mean optical density of CGRP-immunoreactivity compared to saline-treated controls: i.t. morphine 15 μg for 10 days
Sprague Dawley rats [3] = system: Sprague Dawley rats; remark: listed apart in the source
Experimental: Experiments were performed in accordance with guidelines of the Canadian Council on Animal Care using protocols approved by the University Animal Care Committee. Adult male Sprague Dawley rats (200-250 grams) (Charles River, Quebec) were housed in separate cages and maintained on a 12 hour light/12 hour dark cycle with access to food and water ad libitum.
Animals were anaesthetized with halothane (4%) and implanted with an indwelling intrathecal catheter. A small puncture was made in the atlanto-occipital membrane and a polythene catheter (PE-10; 7.5 cm long) inserted caudally so that the tip rested on the lumbar enlargement of the spinal cord. The rostral end was exteriorized to facilitate drug administration. Surgical wounds were closed with sutures and animals allowed to recover for one week. Animals showing signs of forelimb or hindlimb paralysis were excluded from experiments. Drugs were injected in a 10 μl volume (i.t.) followed by 10 μl of 0.9% saline to flush the catheter.
Response to an acute thermal nociceptive stimulus was assessed in rats using the tail-flick test. Radiant heat was applied to the dorsal surface of the tail using an analgesic meter and the time latency for removal of the tail from the stimulus was recorded. […]
Response to an acute mechanical nociceptive stimulus was assessed using the paw-pressure test. Using an air-filled inverted syringe, pressure was gradually applied to the dorsal surface of the hindpaw until a paw withdrawal response was observed and the value (mmHg) recorded. […]
Tail-flick and paw-pressure values were converted to a maximum percentage effect (M.P.E.): M.P.E.=100×[post-drug response−baseline response]/[maximum response−baseline response]. Data in the figures are expressed as mean±s.e.mean. ED50 values were determined using a non-linear regression analysis (Prism 2, GraphPad Software Inc., San Diego, Calif., USA). Statistical significance (p<0.05) was determined using a one-way analysis of variance (ANOVA) followed by a Student Newman-Keuls post hoc test for multiple comparisons between groups.

Sprague Dawley rats [4] = system: Sprague Dawley rats; remark: listed apart in the source
[5] = 5-day i.t. morphine 15 μg, ED50 on day 6
[6] = 10 day i.t. morphine 15 μg, ED50 on day 11
[7] = Acute Tolerance: three i.t. injections over 4 h of Mor 15 μg, AM-251 3.2 μg or both, morphine ED50 from cumulative dose-response the following day
[8] = Chronic Tolerance: daily i.t. days 1-5 of Mor 15 μg, AM-251 3.2 μg or both, morphine ED50 on day 6
[9] = Maintenance of Chronic Tolerance: Mor 15 μg days 1-5, then days 6-10 the labelled treatment (Mor 15 μg, Mor + AM-251 3.2 μg, or AM-251 3.2 μg), morphine ED50 on day 11
[10] = acute tolerance, repeated i.t. morphine 15 μg
[11] = Acute Tolerance, morphine 15 μg, AM-251 3.2 μg i.t.
[12] = Chronic Tolerance, days 1-5, morphine 15 μg, AM-251 3.2 μg i.t.
[13] = Maintenance of Chronic Tolerance: Mor 15 μg D1-5, saline D6-10
[14] = Maintenance of Chronic Tolerance: Mor 15 μg D1-5, then D6-10 the labelled treatment (Mor, Mor + AM-251 3.2 μg, or AM-251 3.2 μg)

CN1CC[C@]23c4c5ccc(O)c4O[C@H]2[C@@H](O)C=C[C@H]3[C@H]1C5.O=S(=O)(O)O [morphine, Morphine sulphate]
increase in ED50 values compared to saline-only controls (Sprague Dawley rats [1]; [5]): 5.9 fold | increase in morphine ED50 value compared to saline-only (morphine-naïve) animals (Sprague Dawley rats [1]; [6]): 6.8 fold | Paw-Pressure ED50 (μg) (mean ± s.e.mean) (Sprague Dawley rats [1]; Acute Tolerance: Mor 15 μg once, then saline only, morphine ED50 the following day): 8.9 ± 0.4 µg | Paw-Pressure ED50 (μg) (mean ± s.e.mean) (Sprague Dawley rats [1]; [7]): 35.2 ± 3.3 µg | Paw-Pressure ED50 (μg) (mean ± s.e.mean) (Sprague Dawley rats [1]; [8]): 59.9 ± 4.0 µg | Paw-Pressure ED50 (μg) (mean ± s.e.mean) (Sprague Dawley rats [1]; Maintenance of Chronic Tolerance: Mor 15 μg days 1-5, saline days 6-10, morphine ED50 on day 11): 10.7 ± 2.2 µg | Paw-Pressure ED50 (μg) (mean ± s.e.mean) (Sprague Dawley rats [1]; [9]): 49.8 ± 6.5 µg | increase in ED50 value as compared to saline-only controls (Sprague Dawley rats [1]; [10]): 5.6 fold | Deeper Laminae (mean ± s.e.mean), mean optical density of CGRP-immunoreactivity [2, 11]: 81.6 ± 7.8 | Superficial Laminae (mean ± s.e.mean), mean optical density of CGRP-immunoreactivity [2, 11]: 146.0 ± 6.7 | Deeper Laminae (mean ± s.e.mean), mean optical density of CGRP-immunoreactivity [2, 12]: 89.5 ± 11.9 | Superficial Laminae (mean ± s.e.mean), mean optical density of CGRP-immunoreactivity [2, 12]: 195.7 ± 12.0 | Deeper Laminae (mean ± s.e.mean), mean optical density of CGRP-immunoreactivity [2, 13]: 84.8 ± 13.6 | Superficial Laminae (mean ± s.e.mean), mean optical density of CGRP-immunoreactivity [2, 13]: 141.8 ± 4.5 | Deeper Laminae (mean ± s.e.mean), mean optical density of CGRP-immunoreactivity [2, 14]: 103.0 ± 7.5 | Superficial Laminae (mean ± s.e.mean), mean optical density of CGRP-immunoreactivity [2, 14]: 176.1 ± 8.2 | effect on CGRP-immunoreactivity ([2]; acute i.t. morphine 15 μg over 4 hours): failed to have an effect | effect on CGRP-immunoreactivity ([2]; deeper laminae, daily i.t. morphine for 5-days): no significant effect | increase in the mean optical density of CGRP-immunoreactivity compared to saline-treated controls ([2]; deeper laminae): 45% | CGRP-immunoreactivity after cessation of treatment ([2]; morphine stopped after day 5, only saline on days 6-10): return of CGRP-immunoreactivity to baseline levels | increase in the mean optical density of CGRP-immunoreactivity ([2]; superficial laminae, daily i.t. morphine for 5-days): 46% | increase in the mean optical density of CGRP-immunoreactivity compared to saline-treated controls ([2]; superficial laminae): 38% | morphine ED50 value versus saline-only control (Sprague Dawley rats [3]; acute paradigm, drug without the other drug: single morphine injection then saline, or AM-251 3.2 μg alone): not statistically different | antinociceptive effect on repeated daily administration (Sprague Dawley rats [3]; i.t. morphine 15 μg daily, by day 5): progressive decline of antinociceptive effect to baseline levels | morphine ED50 value versus saline-only animals (Sprague Dawley rats [3]; morphine days 1-5 discontinued, then saline (row morphine) or AM-251 alone (row AM-251) on days 6-10): comparable to saline-only | increase in ED50 values compared to saline-only controls (Sprague Dawley rats [4]; [5]): 7.5 fold | increase in morphine ED50 value compared to saline-only (morphine-naïve) animals (Sprague Dawley rats [4]; [6]): 9.6 fold | Tail-flick ED50 (μg) (mean ± s.e.mean) (Sprague Dawley rats [4]; [7]): 33.7 ± 0.9 µg | Tail-flick ED50 (μg) (mean ± s.e.mean) (Sprague Dawley rats [4]; [8]): 46.7 ± 2.1 µg | Tail-flick ED50 (μg) (mean ± s.e.mean) (Sprague Dawley rats [4]; [9]): 53.0 ± 3.6 µg | increase in ED50 value as compared to saline-only controls (Sprague Dawley rats [4]; [10]): 5.9 fold
